Assay results taken from the supplement of paper PMC10369915.
The other results are listed elsewhere or left out. Cut-off read from the data, not from the text of the source: active = 3.2 or more and inactive = the rest. The signal is at background level for most entries.

Legend:
Assay in all cases: enrichment score (SH2-bound / input frequency) (ratio); bacterial display of known human phosphotyrosine sites (pTyr-Var adds point mutants) read by sequencing; higher = stronger binding; tyrosines were phosphorylated by kinases first
Details in all cases: peptide library: Human pTyr
SHP2 C-SH2 domain E139D = target: SHP2 C-SH2 domain E139D
[1] = target: SHP2 C-SH2 domain wild-type
SHP2 N-SH2 domain L43F = target: SHP2 N-SH2 domain L43F
SHP2 N-SH2 domain T42A = target: SHP2 N-SH2 domain T42A
SHP2 N-SH2 domain T52S = target: SHP2 N-SH2 domain T52S
[2] = target: SHP2 N-SH2 domain wild-type

Measured: enrichment score
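Note: displayed peptides selected on beads carrying the immobilized SH2 domain, with library peptides lacking any tyrosine serving as negative controls.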

TAIDPDTYEDPSLAV [EPHA6_HUMAN_612_YA]
inactive: SHP2 C-SH2 domain E139D 1 | [1] 0.855 | SHP2 N-SH2 domain L43F 0.801 | SHP2 N-SH2 domain T42A 1.24 | SHP2 N-SH2 domain T52S 0.968 | [2] 0.917

KFPGTKTYIDPETYE [EPHA7_HUMAN_608]
inactive: SHP2 C-SH2 domain E139D 0.693 | [1] 0.846 | SHP2 N-SH2 domain L43F 0.653 | SHP2 N-SH2 domain T42A 0.612 | SHP2 N-SH2 domain T52S 0.7 | [2] 0.898

TYIDPETYEDPNRAV [EPHA7_HUMAN_614]
inactive: SHP2 C-SH2 domain E139D 0.852 | [1] 0.533 | SHP2 N-SH2 domain L43F 0.676 | SHP2 N-SH2 domain T42A 0.751 | SHP2 N-SH2 domain T52S 0.843 | [2] 0.688

FAAEPHTYEEPGRAG [EPHA8_HUMAN_616_YA]
inactive: SHP2 C-SH2 domain E139D 0.944 | [1] 0.667 | SHP2 N-SH2 domain L43F 0.773 | SHP2 N-SH2 domain T42A 0.579 | SHP2 N-SH2 domain T52S 0.736 | [2] 0.67

AVLADVSYLMAMEKS [ADRBK1_HUMAN_13]
inactive: SHP2 C-SH2 domain E139D 0.63 | [1] 0.62 | SHP2 N-SH2 domain L43F 0.74 | SHP2 N-SH2 domain T42A 0.745 | SHP2 N-SH2 domain T52S 1.36 | [2] 0.433

ENSSDPTYTSSLGGK [EPHB4_HUMAN_774]
inactive: SHP2 C-SH2 domain E139D 0.669 | [1] 0.593 | SHP2 N-SH2 domain L43F 0.717 | SHP2 N-SH2 domain T42A 0.619 | SHP2 N-SH2 domain T52S 0.656 | [2] 0.532

SEHAQDTYLVLDKWL [EPOR_HUMAN_368]
inactive: SHP2 C-SH2 domain E139D 0.785 | [1] 0.687 | SHP2 N-SH2 domain L43F 0.561 | SHP2 N-SH2 domain T42A 0.643 | SHP2 N-SH2 domain T52S 0.637 | [2] 0.458

ASAASFEYTILDPSS [EPOR_HUMAN_426]
inactive: SHP2 C-SH2 domain E139D 0.699 | [1] 0.843 | SHP2 N-SH2 domain L43F 1.18 | SHP2 N-SH2 domain T42A 0.836 | SHP2 N-SH2 domain T52S 0.862 | [2] 0.77

DSGISTDYSSGDSQG [EPOR_HUMAN_468]
inactive: SHP2 C-SH2 domain E139D 0.746 | [1] 0.486 | SHP2 N-SH2 domain L43F 0.673 | SHP2 N-SH2 domain T42A 0.592 | SHP2 N-SH2 domain T52S 0.637 | [2] 0.567

ARPLVEFYEEIKKYE [ADRBK1_HUMAN_86]
inactive: SHP2 C-SH2 domain E139D 1.25 | [1] 1.74 | SHP2 N-SH2 domain L43F 0.994 | SHP2 N-SH2 domain T42A 1.36 | SHP2 N-SH2 domain T52S 0.992 | [2] 1.38

DEDEEAEYMNRRRRH [ERBB3_HUMAN_1199_YA]
inactive: SHP2 C-SH2 domain E139D 0.951 | [1] 0.866 | SHP2 N-SH2 domain L43F 0.765 | SHP2 N-SH2 domain T42A 0.796 | SHP2 N-SH2 domain T52S 0.73 | [2] 0.766

TPDEDAEYMNRQRDG [ERBB3_HUMAN_1262_YA]
inactive: SHP2 C-SH2 domain E139D 1.09 | [1] 0.59 | SHP2 N-SH2 domain L43F 0.888 | SHP2 N-SH2 domain T42A 0.635 | SHP2 N-SH2 domain T52S 0.938 | [2] 0.58

SLGGKKDYQTSPLLE [ADSV_HUMAN_599]
inactive: SHP2 C-SH2 domain E139D 0.742 | [1] 0.704 | SHP2 N-SH2 domain L43F 0.802 | SHP2 N-SH2 domain T42A 0.934 | SHP2 N-SH2 domain T52S 0.787 | [2] 0.773

EYVNEPLYLNTFANT [ERBB4_HUMAN_1208]
inactive: SHP2 C-SH2 domain E139D 0.981 | [1] 0.839 | SHP2 N-SH2 domain L43F 0.679 | SHP2 N-SH2 domain T42A 0.819 | SHP2 N-SH2 domain T52S 0.911 | [2] 0.881

SIYIPSSYVDSHHEY [ESR2_HUMAN_36]
inactive: SHP2 C-SH2 domain E139D 0.687 | [1] 0.665 | SHP2 N-SH2 domain L43F 0.864 | SHP2 N-SH2 domain T42A 0.56 | SHP2 N-SH2 domain T52S 0.823 | [2] 0.564

KNEFISEYCGEIISQ [EZH2_HUMAN_641]
inactive: SHP2 C-SH2 domain E139D 1 | [1] 1.14 | SHP2 N-SH2 domain L43F 0.97 | SHP2 N-SH2 domain T42A 0.911 | SHP2 N-SH2 domain T52S 1.26 | [2] 1.19

SSENFDDYMKEVGVG [FABP4_HUMAN_20]
inactive: SHP2 C-SH2 domain E139D 1.01 | [1] 0.862 | SHP2 N-SH2 domain L43F 1.05 | SHP2 N-SH2 domain T42A 0.944 | SHP2 N-SH2 domain T52S 1.33 | [2] 1.21

GGGMAAAYLDPNLNH [FAK1_HUMAN_5]
inactive: SHP2 C-SH2 domain E139D 0.643 | [1] 0.597 | SHP2 N-SH2 domain L43F 0.562 | SHP2 N-SH2 domain T42A 0.579 | SHP2 N-SH2 domain T52S 0.612 | [2] 0.607

CSIESDIYAEIPDET [FAK2_HUMAN_402]
inactive: SHP2 C-SH2 domain E139D 1.59 | [1] 1.36 | SHP2 N-SH2 domain L43F 1.24 | SHP2 N-SH2 domain T42A 1.51 | SHP2 N-SH2 domain T52S 1.46 | [2] 2.39

KSLDPMVYMNDKSPL [FAK2_HUMAN_834]
inactive: SHP2 C-SH2 domain E139D 1.03 | [1] 0.608 | SHP2 N-SH2 domain L43F 0.856 | SHP2 N-SH2 domain T42A 0.803 | SHP2 N-SH2 domain T52S 0.653 | [2] 0.637

VAEELNIYSATASEL [FCERB_HUMAN_225_YA]
inactive: SHP2 C-SH2 domain E139D 0.646 | [1] 0.551 | SHP2 N-SH2 domain L43F 0.779 | SHP2 N-SH2 domain T42A 0.792 | SHP2 N-SH2 domain T52S 0.568 | [2] 0.966

TDPEALHYDYIDVEM [AFAP1_HUMAN_451]
inactive: SHP2 C-SH2 domain E139D 0.957 | [1] 0.888 | SHP2 N-SH2 domain L43F 2.36 | SHP2 N-SH2 domain T42A 2.71 | SHP2 N-SH2 domain T52S 1.91 | [2] 1.12

YEKSDGVYTGLSTRN [FCERG_HUMAN_65]
inactive: SHP2 C-SH2 domain E139D 0.589 | [1] 0.494 | SHP2 N-SH2 domain L43F 0.767 | SHP2 N-SH2 domain T42A 0.5 | SHP2 N-SH2 domain T52S 0.653 | [2] 0.473

EEDDEENYENVPRVL [FCRL3_HUMAN_722]
inactive: SHP2 C-SH2 domain E139D 1.04 | [1] 0.893 | SHP2 N-SH2 domain L43F 0.88 | SHP2 N-SH2 domain T42A 1.11 | SHP2 N-SH2 domain T52S 1.12 | [2] 1.2

EPPPVVNYEEDARSV [FER_HUMAN_402]
inactive: SHP2 C-SH2 domain E139D 0.878 | [1] 0.892 | SHP2 N-SH2 domain L43F 0.784 | SHP2 N-SH2 domain T42A 0.985 | SHP2 N-SH2 domain T52S 0.834 | [2] 0.965

SKTMTPTYDAHDGSP [FERMT2_HUMAN_193]
inactive: SHP2 C-SH2 domain E139D 0.865 | [1] 0.611 | SHP2 N-SH2 domain L43F 0.666 | SHP2 N-SH2 domain T42A 0.774 | SHP2 N-SH2 domain T52S 0.783 | [2] 0.922

DIHHIDYYKKTTNGR [FGFR1_HUMAN_654]
inactive: SHP2 C-SH2 domain E139D 1.31 | [1] 0.935 | SHP2 N-SH2 domain L43F 1.03 | SHP2 N-SH2 domain T42A 1.18 | SHP2 N-SH2 domain T52S 0.834 | [2] 0.904

ALTSNQEYLDLSMPL [FGFR1_HUMAN_766]
inactive: SHP2 C-SH2 domain E139D 0.858 | [1] 0.847 | SHP2 N-SH2 domain L43F 0.599 | SHP2 N-SH2 domain T42A 0.481 | SHP2 N-SH2 domain T52S 0.625 | [2] 0.766

DINNIDYYKKTTNGR [FGFR2_HUMAN_657]
inactive: SHP2 C-SH2 domain E139D 1.21 | [1] 0.797 | SHP2 N-SH2 domain L43F 0.987 | SHP2 N-SH2 domain T42A 0.545 | SHP2 N-SH2 domain T52S 0.984 | [2] 1.04

SYGAADHYGPDPTKA [FGR_HUMAN_34]
inactive: SHP2 C-SH2 domain E139D 0.647 | [1] 0.541 | SHP2 N-SH2 domain L43F 0.493 | SHP2 N-SH2 domain T42A 0.443 | SHP2 N-SH2 domain T52S 0.559 | [2] 0.577

EAAALRVYFQGGGGG [FHIT_HUMAN_145]
inactive: SHP2 C-SH2 domain E139D 0.841 | [1] 0.736 | SHP2 N-SH2 domain L43F 0.83 | SHP2 N-SH2 domain T42A 0.759 | SHP2 N-SH2 domain T52S 0.77 | [2] 0.829

KGEHSIVYLKPSAAF [FKBP4_HUMAN_220_YA]
inactive: SHP2 C-SH2 domain E139D 1.09 | [1] 0.914 | SHP2 N-SH2 domain L43F 1.11 | SHP2 N-SH2 domain T42A 1.58 | SHP2 N-SH2 domain T52S 1.23 | [2] 1.08

SSLPEGYYEEAVPLS [AFAP1_HUMAN_94]
inactive: SHP2 C-SH2 domain E139D 0.552 | [1] 0.655 | SHP2 N-SH2 domain L43F 0.618 | SHP2 N-SH2 domain T42A 0.596 | SHP2 N-SH2 domain T52S 0.533 | [2] 0.664

DVADKVDYLSSLGKT [FLOT2_HUMAN_163_YA]
inactive: SHP2 C-SH2 domain E139D 0.548 | [1] 0.612 | SHP2 N-SH2 domain L43F 0.712 | SHP2 N-SH2 domain T42A 0.584 | SHP2 N-SH2 domain T52S 0.728 | [2] 0.594

KYKKQFRYESQLQMV [FLT3_HUMAN_572]
inactive: SHP2 C-SH2 domain E139D 1.16 | [1] 0.75 | SHP2 N-SH2 domain L43F 0.812 | SHP2 N-SH2 domain T42A 0.855 | SHP2 N-SH2 domain T52S 0.912 | [2] 0.951

KAKKQFRYESQLQMV [FLT3_HUMAN_572_YA]
inactive: SHP2 C-SH2 domain E139D 1.37 | [1] 1.32 | SHP2 N-SH2 domain L43F 1.34 | SHP2 N-SH2 domain T42A 1.14 | SHP2 N-SH2 domain T52S 1.3 | [2] 1.33
